# Test results taken from article PMC12040169 (PLOS Biology, 2025).
# Some of the results follow.
# System: T1, C. trachomatis L2/434/Bu expressing GFP (CTL2-GFP)
# T1 construct: L2/434/Bu GFP intracellular growth in HeLa cells
# Design: species or system HeLa; C. trachomatis total inclusion area by high-content imaging, normalised to DMSO
# Settings: total inclusion area; 28.5 h, 10 µM; inhibitor
# Summary of the method: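 Bulk GFP and resorufin signals were read first. Wells were then fixed, stained with Hoechst and imaged to detect GFP inclusions and host nuclei. MICs followed the previously described calculation.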
row,SMILES,% of control remaining
1,O=C(CSc1nnc(-c2cccnc2)o1)c1ccc(Oc2ccccc2)cc1 [CBK266327],106.683
2,Cn1c(=O)n(C)c2cc(CNCc3cccnc3)ccc21 [CBK268432C],118.441
3,Oc1ccc(Br)cc1CN1CCN(Cc2cccc3ccccc23)CC1 [CBK263662],92.3667
4,CN(CC1CC1)C(=O)Cn1cnc2c(F)cc(Br)cc2c1=O [CBK305227],65.0386
5,CCNC(=O)c1cc2c(=O)n3ccccc3nc2n(C)c1=N [CBK287762],67.0008
6,Cc1noc(C)c1CC(=O)N1CCC2(C/C=C/C[C@H]3COCC[C@@H]3NC(=O)CNC2=O)CC1 [CBK292071],98.4813
7,CC(=O)N1CCc2cc(C(O)CN3CCN(c4nsc5ccccc45)CC3)ccc21 (stereo not drawn) [CBK283092],77.5645
8,O=C(CO)N1CC2(CCN(CCn3cccc3)CC2)c2ccccc21 [CBK143953],82.1486
9,Cc1cc(C)cc(-c2ccc(CC3(C(=O)NCC4CCCOC4)CCOCC3)cc2)c1 (stereo not drawn) [CBK286524],96.8101
10,CCc1c(C(=O)N(C)Cc2cnn(C(C)C)c2)[nH]c2ccccc12 [CBK307501],51.5025
11,CCOC(=O)CC(=O)COc1noc2nc(C)cc(C)c12 [CBK269595],98.8969
12,CN(C)CCN(C)c1nc(-c2ccc3c(c2)OCO3)cn2ccnc12 [CBK066381],97.4149
13,O=C1COc2ccccc2C/C=C/CC2(CCN(C(=O)Cn3cccn3)CC2)C(=O)NCCN1 [CBK292003],106.212
14,O=C1CCC(N2CCN(c3ncnc4ccccc34)CC2)CCN1 (stereo not drawn) [CBK304393],38.9895
15,Cc1nc(-c2ccc(S(=O)(=O)N3CCC(Cc4ccccc4)CC3)cc2)cs1 [CBK265494],83.9084
16,Nc1ccc(-c2nnn(CC(=O)NC3CCCCC3)n2)cc1 [CBK135771],99.928
17,CCOC(=O)CN1C(=O)N2CCCN=C2c2ccc(Cl)cc21 [CBK284401],73.0219
18,Cc1ccc(C(=O)Nc2ncn(CC(=O)N3CCCCCC3)n2)s1 [CBK304951],44.6774
19,O=C(O)CNS(=O)(=O)c1cc(Br)c(Cl)s1 [CBK034455],87.9437
20,CNc1ncc(CN(C)C(=O)Cn2nc(C)c3ccccc3c2=O)cn1 [CBK307704],104.687
21,CN1CCN(CCCNC(=O)N2CCCC(CO)C2)CC1 (stereo not drawn) [CBK156029],106.998

row,SMILES,% of control remaining
1,Cc1ccc(N2C(=O)CSC23C(=O)Nc2ccccc23)cc1Br (stereo not drawn) [CBK093472],79.295
2,CCCn1nc(COc2cccc(F)c2)nc1C1CCN(C(C)=O)CC1 [CBK306637],63.4855
3,Cc1cccc(=O)n1CCCn1cc(C2CCOC2)nn1 (stereo not drawn) [CBK307368],77.197
4,O=C(O)c1cccc(NC(=S)NC(=O)C(c2ccccc2)c2ccccc2)c1 [CBK265053],100.499
5,Cc1nnc2c(=O)n(CC(=O)N3CCN(C(C)C)CC3)c3cccnc3n12 [CBK288601],102.423
6,Cc1nn(C)c(O)c1Cc1c(F)cccc1Cl [CBK067759],108.025
7,Cc1cc2c(cc3c(=O)n(CC(=O)N4CCCC4)nc(C)n32)o1 [CBK283631],84.7826
8,O=c1cc(N2CCOCC2)oc2ccccc12 [CBK008244G],106.02
9,CC(=O)N1CCCc2cc(C(O)CN(C)Cc3ccccc3)ccc21 (stereo not drawn) [CBK282149],103.285
10,OCCOCCNc1ncnc2sc(-c3ccccc3)cc12 [CBK265951],75.1321
11,CCOC(=O)c1cnc2ccc(Cl)cc2c1NC [CBK307605],54.3629
12,CN(Cc1ccccc1)C(=O)CNS(=O)(=O)c1ccc([N+](=O)[O-])cc1 [CBK268586],91.1743
13,COCCN(C(=S)Nc1ccc(OC)cc1)C(C)c1cccnc1 (stereo not drawn) [CBK294471],123.015
14,Cc1cccc(-c2n[nH]c(=S)n2CC(=O)Nc2cccc(C#Cc3ccccn3)c2)c1 [CBK296633],89.5516
15,COc1ccc(N2C(=O)CC(NNC(N)=O)C2=O)cc1 (stereo not drawn) [CBK263080],86.7894
16,COc1ccc(-c2cnn(-c3ccc(OC(F)(F)F)cc3)n2)cc1 [CBK112773],81.4238
17,Cc1csc2ncnc(N3CCN(C(=O)C4CC4)CC3)c12 [CBK023593],117.413
18,NCCCNc1ccc(C(=O)Nc2ccc(Cl)cc2)cc1[N+](=O)[O-] [CBK267880],80.7234
19,O=C(NCC1CCCCC1)c1ccccc1-n1cccc1 [CBK149603],90.7224
20,O=c1cc(Nc2ccc3c(c2)OCO3)[nH]c(=O)n1-c1ccc(Cl)cc1 [CBK287507],103.485
21,Cc1cc(O)cc(=O)n1Cc1cccnc1 [CBK291123],91.7235

row,SMILES,% of control remaining
1,Cc1ccn(CCC(=O)N2CCC3(C/C=C/C[C@H]4COCC[C@@H]4NC(=O)CNC3=O)CC2)n1 [CBK292070],109.124
2,COc1ccc(NC(=O)CC(C(=O)O)N2CCOCC2)cc1 (stereo not drawn) [CBK266955],93.8572
3,O=C(Nc1ccccc1)[C@H]1CN2CCC1C[C@@H]2Cn1cc(C2(O)CCCC2)nn1 (stereo partly drawn) [CBK289091],106.685
4,CCOc1ncccc1C(=O)N(Cc1nnc(-c2ccc(Cl)cc2)o1)C1CC1 [CBK296934],99.0392
5,CC(=O)Nc1c(-c2ccc(C)cc2)c(=O)c2ccccc2n1C [CBK287775],109.788
6,CSc1nnc(CCCNC(=O)c2cccc(C#N)c2)n1CC(C)C [CBK306023],62.835
7,COc1ccc(-n2c(CNCc3ccc4c(c3)OCO4)nc3ccccc3c2=O)cc1 [CBK074522],78.1703
8,O=C(Nc1cccc(Cl)c1)c1nnc(C(=O)NC2CCCCC2)s1 [CBK294406],110.419
9,O=C(O)Cc1ccc(Oc2ncc(C(F)(F)F)cc2Cl)cc1 [CBK161657],126.055
10,CCC(C(=O)O)N1C(=O)NC2C1N(C)C(=O)N2C (stereo not drawn) [CBK287039],101.94
11,Cc1cccnc1C1(O)CCN(C(=O)Cc2ccccc2Cl)CC1 [CBK283682],108.036
12,CSc1nc2c(cc1C#N)CCC2 [CBK026532],38.1446
13,CC(=O)N1CCc2c([nH]c3ccccc23)C1CNCc1ccc(F)cc1 (stereo not drawn) [CBK066968],102.223
14,O=C(c1ccccc1)N1CCC(c2nnc(-c3ccsc3)o2)CC1 [CBK283371],113.274
15,Cc1ccc(C(=O)N2CCC(C(=O)NC(c3ccccc3)c3ccsc3)CC2)cc1 (stereo not drawn) [CBK060154],101.448
16,O=c1c2cc(F)ccc2nc2n1CCN(Cc1ccsc1)CC2 [CBK284860],76.3022
17,COc1ccc(-c2nc(-c3ccncc3)ncc2C(=O)NCc2ccncc2)cc1 [CBK291112],122.348
18,COc1ccc(OC)c(S(=O)(=O)n2ccc3c(N4CCNCC4)nccc32)c1 [CBK059067C],80.3419
19,NC(=O)c1cccc(-c2nc(-c3ccc(F)cc3F)cnc2N)c1 [CBK064109],96.2865
20,COC(=O)C1Cc2cc3c(cc2C(c2cc(OC)c(OC)c(OC)c2)N1)OCO3 (stereo not drawn) [CBK200104T],65.1077
21,CN(C)C(=O)Cn1cccc2cc(-c3ccc(F)cc3)nc1-2 [CBK285349],100.566

row,SMILES,% of control remaining
1,CC(C)NC(=O)N1CCc2sccc2C1c1ccc(Cl)cc1 (stereo not drawn) [CBK018247],74.3169
2,O=C1Nc2ccc(-c3ccsc3)cc2C(=O)N2CC[C@H](NC(=O)N3CCOCC3)[C@@H]12 [CBK289338],123.459
3,O=C(c1cn(-c2cc(Nc3ccccc3)ncn2)cn1)N1CCOCC1 [CBK288610],108.415
4,COc1cc(CNc2nc(O)cc(C(F)(F)F)n2)cc(OC)c1OC [CBK002390],95.5461
5,CCCOc1ccc(Cc2nc(N(C)C)cc(N(C)C)n2)cc1 [CBK008318],102.371
6,Cc1ccc(C(=O)Nc2ccc3c(c2)OCO3)c(N2CCOCC2)n1 [CBK076377],112.086
7,FC(F)(F)c1cc(-c2cc(N3CCN(c4ccccn4)CC3)ncn2)cc(C(F)(F)F)c1 [CBK091082],27.812
8,CS(=O)(=O)c1ccc(CN2C(=O)CC3(CCN(Cc4ccccc4)CC3)C2=O)cc1 [CBK144065T],69.1627
9,CCCC(=O)NC1CCN(C(=O)c2snnc2CC)CC1 [CBK297744],93.9641
10,COc1cc(C#N)ccc1OCc1cc(C)on1 [CBK002581],87.1474
11,COc1ccccc1N(CC(=O)Nc1ccc2c(c1)oc1ccccc12)S(=O)(=O)c1ccccc1 [CBK264737],100.068
12,C#CCn1ncc2c3sc(C)cc3n(CC)c2c1=O [CBK284225],95.6895
13,Cn1cccc1-c1cc(C(=O)N/N=C/c2cccc(O)c2)[nH]n1 [CBK263397],88.0931
14,CC(C)c1ccc(/C=C/C(=O)NCCc2c[nH]cn2)cc1 [CBK149629],101.368
15,NC1OC(COC(=O)c2ccccc2)C(OC(=O)c2ccccc2)C1OC(=O)c1ccccc1 (stereo not drawn) [CBK010282],102.846
16,CC(C)c1nc(CC(=O)N2CCOC(c3ccc(F)cc3)C2)cs1 (stereo not drawn) [CBK305334],29.1292
17,COC(=O)c1c(NC(=O)c2ccccc2)csc1C [CBK026684],99.0218
18,CN1CCC(N(C2CC2)S(=O)(=O)c2ccc(NC(=O)C(C)(C)C)cc2)CC1 [CBK021115],26.5315
